Experimental data from the supplement of paper PMC10126150.
Values marked as one replicate rest on one cluster of the flow cell; about a third of the high ones do not repeat.

Each sequence was assayed on ATP (assay: switch fluorescence ratio, 500 uM ATP over buffer (Cy3 cluster intensity, sum of 5 cycles each) (fold (ratio)); higher = stronger signal-on switching upon ATP binding; sequences stand for … in TCGTCGGCAGCGTCAGATGTGTATAAGAGACAGTTTTTTTTTTTTTTTTTTTTTTTTT…TC). Conditions: aptamer strand: ATP DNA aptamer (quencher-CACCTGGGGGAGTATTGCGGAGGAAGG + anchor), 100 nM annealed; ATP concentration: 500 uM; one replicate.
Method in brief: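 Per cluster, summed Cy3 intensity from the target cycles was divided by that from the buffer cycles to give the fluorescence ratio, then averaged per switch-domain sequence. Clusters outside 100-1000 RFU were excluded. The Cy3-labelled switching-strand clusters, on a modified Illumina MiSeq flow-cell, were annealed to 100 nM quencher-labelled ATP aptamer and imaged in selection buffer, then after 15 min with 500 uM ATP at 22 °C, for five cycles with NaOH stripping and re-annealing between them.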
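Note: ATP exposure 15 min at 22 °C before imaging.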

Sequence | switch fluorescence ratio
TAGTGAGTTT | 1.02
TAGTGGAGAC | 1.08
TAGTGGGTG | 0.996
TAGTGTAGAG | 1.04
TAGTGTCTTC | 0.95
TAGTGTGAGT | 0.999
TAGTGTGTGT | 1.03
TAGTTAACCG | 1
TAGTTAATGA | 0.984
TAGTTAGCCT | 1.02
TAGTTATGCA | 1.01
TAGTTCCCGG | 0.963
TAGTTCGAAA | 0.988
TAGTTCGACC | 1.03
TAGTTGATTG | 1
TAGTTGTGAC | 1.07
TAGTTTACGT | 1.03
TAGTTTATGC | 1.07
TAGTTTGTAG | 1.02
TATAACGTGT | 1.03
TATAAGGACT | 1
TATAAGGCCT | 1.03
TATAAGGTAC | 1.09
TATAATCAAC | 1.04
TATAATTGCT | 1.02
TATACAGGTT | 0.998

Sequence | switch fluorescence ratio
TATACAGTAT | 1.08
TATACTAATT | 1.03
TATACTCGCA | 1.16
TATAGAGACA | 1.01
TATAGATATC | 1.02
TATAGCACGT | 1.07
TATAGCCAGC | 0.985
TATAGCTCGC | 0.96
TATAGGGAGA | 1.02
TATAGGTCTC | 0.982
TATATACAGA | 1
TATATAGAGA | 0.982
TATATCGTGT | 1
TATATGTTGA | 0.994
TATATT | 0.966
TATATTAGAT | 1.01
TATATTATCA | 0.969
TATATTGCCA | 1.02
TATCAACAGC | 0.994
TATCAAGATA | 1.01
TATCAAGGCG | 0.982
TATCAAGGGT | 0.965
TATCAGCAGG | 1.05
TATCATAGAG | 1.01
TATCATCGGG | 1.03
TATCATGATA | 1.02

Sequence | switch fluorescence ratio
TATCCGAGCC | 1.35
TATCCGCTGG | 1.42
TATCCTCGAG | 0.99
TATCCTGACT | 1.29
TATCGAAAAG | 1.04
TATCGCCTTT | 0.99
TATCGCTATG | 1.06
TATCGGGTGA | 1
TATCGTAATG | 1.03
TATCGTACGA | 1.06
TATCGTCGAG | 0.968
TATCGTTAGA | 0.973
TATCGTTATA | 1.01
TATCGTTTTC | 0.987
TATCTAAGGG | 0.985
TATCTATACT | 1.03
TATCTGAAA | 0.987
TATCTGAGGT | 1
TATCTGCCGT | 1.04
TATCTGGTGT | 1.01
TATCTTCGAT | 0.961
TATCTTGTTC | 1.04
TATCTTGTTG | 1.02
TATCTTTCCG | 1
TATCTTTCGA | 1.02
TATGAAAAGG | 0.994

Sequence | switch fluorescence ratio
TATGAAATGA | 0.961
TATGAAATTG | 1.01
TATGAATGCA | 1.04
TATGACAGTT | 0.947
TATGAGACAC | 1.02
TATGAGGTCA | 0.994
TATGAGTCCG | 1.21
TATGATCGGA | 1.02
TATGCCCACT | 0.984
TATGCCCTTG | 1.06
TATGCGAAGA | 1.07
TATGCTGTGC | 0.992
TATGGAACGG | 0.956
TATGGCCACG | 0.977
TATGGCGATT | 1.77
TATGGCGGGC | 1.02
TATGGCTTAG | 0.991
TATGGGAAAT | 0.968
TATGGGACTG | 1.01
TATGGGGGG | 1.02
TATGTAAC | 1.02
TATGTAAGG | 1.02
TATGTAATAG | 1.22
TATGTCAGTG | 1.02
TATGTCCCCC | 1.06
TATGTCTAAG | 1.02

Sequence | switch fluorescence ratio
TATGTCTTGC | 1.02
TATGTGAA | 0.964
TATGTGGCTA | 0.938
TATGTGGTCC | 1.06
TATGTGTGTC | 0.938
TATGTTAGG | 1.02
TATGTTCAC | 0.944
TATGTTCGCG | 0.956
TATGTTCTGT | 0.957
TATGTTGCTT | 0.943
TATTAACGGT | 0.992
TATTAAGCAC | 1.27
TATTAAGCAT | 1.01
TATTAATCA | 0.978
TATTAGAAAC | 1.04
TATTAGATCC | 0.969
TATTAGCGGT | 1.03
TATTAGGATG | 1.01
TATTAGTCCT | 0.999
TATTAGTGTT | 0.996
TATTATAATT | 0.954
TATTATAGT | 0.997
TATTATGGAA | 1.05
TATTATTACC | 0.991
TATTATTGAT | 0.985
TATTCGATGG | 0.966

Sequence | switch fluorescence ratio
TATTCGCAAC | 5.18
TATTCGTCCT | 1.02
TATTGATGCT | 1.01
TATTGCGC | 1.02
TATTGGGCAC | 1
TATTGGGTCT | 1.02
TATTGTAAAT | 0.946
TATTGTCAG | 1.05
TATTGTGGTG | 0.988
TATTGTTTGG | 0.983
TATTTAATGG | 1
TATTTACTGC | 0.993
TATTTAGCCT | 1.05
TATTTCACAG | 1
TATTTCCAAA | 0.996
TATTTCCGAA | 1.03
TATTTCGGGC | 1.09
TATTTGCGGG | 1.01
TATTTGTGGC | 1
TATTTGTGTA | 0.959
TATTTGTTAC | 1.04
TATTTTCCCT | 1.05
TATTTTGC | 1.02
TCAAACGATT | 1
TCAAACTATA | 1.03
TCAAAGATGA | 1.04

Sequence | switch fluorescence ratio
TCAAAGCATC | 1.39
TCAAAGGCAA | 1.65
TCAAAGGGAA | 0.978
TCAAAGGTAT | 0.996
TCAAAGTCTT | 0.991
TCAAAGTGGC | 1.06
TCAAATATTA | 1.01
TCAAATGGCA | 1.05
TCAAATTCTT | 0.978
TCAAATTGTT | 1
TCAAATTTCG | 0.986
TCAACACCGG | 1.04
TCAACATTAG | 1.05
TCAACATTTT | 1.05
TCAACCCATT | 1.02
TCAACGAAGC | 1.1
TCAACTCCCT | 2.4
TCAACTGCCT | 1.07
TCAAGAGCCC | 1.01
TCAAGCACCA | 1.21
TCAAGCGAAA | 0.989
TCAAGGACTG | 1.04
TCAAGGTTGT | 0.986
TCAATAATG | 1.14
TCAATAATTT | 0.984
TCAATAGGTG | 1.3

Sequence | switch fluorescence ratio
TCAATCATGG | 0.93
TCAATCCTGG | 1.02
TCACACCCA | 1.28
TCACACTGGA | 0.924
TCACACTTA | 1.09
TCACATGGTG | 1.29
TCACATTGTC | 1
TCACCCACTG | 1.34
TCACCCCGTC | 1.04
TCACCGAACG | 1.34
TCACCGTGCG | 1.02
TCACCTCGAT | 1.04
TCACGCCGTT | 0.984
TCACGGAGCA | 2.43
TCACGGCTTG | 0.973
TCACGTAGCG | 1.11
TCACGTGGAT | 0.999
TCACGTTGGC | 0.964
TCACTAAAGG | 1.01
